Data as given in the supplement of paper PMC7826260.
This is one part of the list. Cleavage of a single-stranded DNA pool by Rep nickase domains was read by sequencing (1 h at 37 °C, 3 µM enzyme); the outer parts of the 90-letter strands are left off. Uncut reads are compared with the no-enzyme pool on a log2 scale; uncut sequences lie near 0, cut ones below; no hit call is given. Shares of all reads are compared; where an enzyme cuts many sequences, the uncut ones exceed 0.

Legend:
Assay in all cases: uncleaved DNA left, log2 of reads against the no-enzyme library (log2 ratio); higher = less cleavage (more negative = more Rep cleavage of the k-mer); sequences stand for … in CTCGTCCG…ACCGGAGA
[1] = tested on: T1, Rep nickase domain of Muscovy duck circovirus
T1 sequence (residues 1-111, tag not shown): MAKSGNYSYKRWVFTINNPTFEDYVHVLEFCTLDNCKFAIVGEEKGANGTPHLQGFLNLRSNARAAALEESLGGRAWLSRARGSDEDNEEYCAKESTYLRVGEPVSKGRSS
Method: (§1)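 A pool of 90-nt single-stranded DNAs with seven random bases just before the constant AC of the nick site (name = the seven bases) was cut by 3 µM recombinant His6-SUMO-tagged Rep nickase domain (300 nM DNA, 50 mM HEPES pH 8.0, 50 mM NaCl, 1 mM MnCl2, 1 h, 37 °C, three replicates). Uncut DNA was amplified and sequenced.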

[2] = tested on: T2, Rep nickase domain of banana bunchy top virus
T2 sequence (residues 1-94, tag not shown): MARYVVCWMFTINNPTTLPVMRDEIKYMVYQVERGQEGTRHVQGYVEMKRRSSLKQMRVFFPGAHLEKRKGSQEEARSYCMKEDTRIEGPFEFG
Method: as §1

[3] = tested on: T3, Rep nickase domain of cabbage leaf curl virus
T3 sequence (residues 1-116, tag not shown): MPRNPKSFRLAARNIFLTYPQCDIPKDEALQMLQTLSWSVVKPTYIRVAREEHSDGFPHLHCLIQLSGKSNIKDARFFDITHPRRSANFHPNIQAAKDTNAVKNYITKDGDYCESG
Method: as §1

[4] = tested on: T4, Rep nickase domain of chickpea chlorotic dwarf virus
T4 sequence (residues 1-124, tag not shown): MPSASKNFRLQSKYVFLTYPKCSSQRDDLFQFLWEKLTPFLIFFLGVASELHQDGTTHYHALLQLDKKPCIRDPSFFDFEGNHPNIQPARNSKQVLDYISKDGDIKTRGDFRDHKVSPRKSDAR
Method: as §1

[5] = tested on: T5, Rep nickase domain of faba bean necrotic yellows virus
T5 sequence (residues 1-98, tag not shown): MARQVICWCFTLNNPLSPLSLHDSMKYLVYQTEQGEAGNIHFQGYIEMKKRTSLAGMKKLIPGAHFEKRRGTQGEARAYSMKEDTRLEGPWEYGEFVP
Method: as §1

[6] = tested on: T6, Rep nickase domain of maize striate mosaic virus
T6 sequence (residues 1-117, tag not shown): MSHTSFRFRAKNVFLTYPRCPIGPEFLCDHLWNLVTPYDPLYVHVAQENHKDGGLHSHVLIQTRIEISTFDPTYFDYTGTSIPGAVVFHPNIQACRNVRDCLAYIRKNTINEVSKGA
Method: as §1

[7] = tested on: T7, Rep nickase domain of porcine circovirus 2
T7 sequence (residues 2-116, tag not shown): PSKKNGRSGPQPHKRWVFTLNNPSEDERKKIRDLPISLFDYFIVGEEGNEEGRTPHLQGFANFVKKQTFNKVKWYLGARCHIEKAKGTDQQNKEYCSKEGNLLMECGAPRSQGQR
Method: as §1

[8] = tested on: T8, Rep nickase domain of tomato golden mosaic virus
T8 sequence (residues 1-124, tag not shown): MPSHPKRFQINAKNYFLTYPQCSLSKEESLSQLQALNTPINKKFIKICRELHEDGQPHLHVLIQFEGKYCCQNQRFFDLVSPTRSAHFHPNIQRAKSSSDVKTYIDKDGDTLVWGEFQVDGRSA
Method: as §1

[9] = tested on: T9, Rep nickase domain of tomato yellow leaf curl virus
T9 sequence (residues 1-136, tag not shown): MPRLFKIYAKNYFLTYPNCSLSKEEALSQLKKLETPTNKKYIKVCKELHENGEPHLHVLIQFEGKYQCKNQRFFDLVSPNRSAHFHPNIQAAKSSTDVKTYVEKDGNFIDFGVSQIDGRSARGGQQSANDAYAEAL
Method: as §1

[10] = tested on: T10, Rep nickase domain of wheat dwarf virus
T10 sequence (residues 1-137, tag not shown): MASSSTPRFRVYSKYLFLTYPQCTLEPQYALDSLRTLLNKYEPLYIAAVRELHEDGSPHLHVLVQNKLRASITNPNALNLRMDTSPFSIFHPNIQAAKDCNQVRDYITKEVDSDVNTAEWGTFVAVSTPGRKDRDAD
Method: as §1

Row | Sequence | uncleaved DNA left (log2) [1] | uncleaved DNA left (log2) [2] | uncleaved DNA left (log2) [3] | uncleaved DNA left (log2) [4] | uncleaved DNA left (log2) [5] | uncleaved DNA left (log2) [6] | uncleaved DNA left (log2) [7] | uncleaved DNA left (log2) [8] | uncleaved DNA left (log2) [9] | uncleaved DNA left (log2) [10]
1 | CTTCACA | -0.122 | 0.129 | -0.113 | -1.49 | -0.00751 | -0.592 | -0.123 | -0.109 | 0.102 | 0.128
2 | GAAGTTT | 0.00408 | 0.0558 | -0.918 | -2.04 | 0.0888 | 0.853 | -0.574 | -0.0546 | 0.126 | -0.0753
3 | CACACCT | -0.124 | -0.274 | -1.14 | -2.79 | -0.0744 | -0.871 | -0.981 | -0.17 | -0.216 | -0.142
4 | CTCACTC | 0.00302 | -0.0593 | 0.0261 | -0.738 | -0.0674 | -0.707 | 0.0242 | -0.152 | -0.0601 | 0.021
5 | GGAGCGA | 0.0306 | 0.0213 | 0.158 | 0.238 | 0.00487 | 0.0344 | 0.021 | 0.0298 | 0.0356 | -0.0138
6 | AAGATAC | 0.134 | 0.0405 | -0.0537 | -0.0505 | 0.18 | -0.561 | 0.209 | -0.00516 | 0.0431 | 0.0999
7 | CTGCGCT | -0.135 | -0.203 | -0.825 | -0.958 | -0.132 | -1.18 | -0.0225 | -0.236 | -0.0618 | -0.192
8 | AAGTCGG | -0.014 | -0.0142 | 0.29 | 0.925 | -0.0992 | 1.11 | 0.0176 | 0.161 | -0.076 | 0.075
9 | TGACGCC | 0.00859 | 0.0474 | 0.124 | 0.367 | 0.0164 | 0.673 | -0.101 | -0.00436 | 0.00942 | 0.0228
10 | CCCCAAA | -0.254 | -0.273 | -0.185 | -0.413 | -0.133 | -0.905 | -0.292 | -0.224 | -0.211 | -0.224
11 | CTCCATG | 0.0235 | -0.00387 | -0.707 | -0.737 | -0.26 | -1.13 | 0.136 | -0.176 | -0.0816 | -0.191
12 | TCCCGTT | -0.06 | 0.13 | 0.143 | -1.03 | 0.102 | -0.309 | -0.0581 | -0.193 | -0.00741 | 0.00381
13 | AAGCACG | 0.0115 | 0.13 | -0.73 | -0.631 | 0.153 | -0.968 | 0.0509 | -0.0531 | 0.0831 | -0.0461
14 | GGGAAAA | 0.0517 | 0.153 | 0.957 | 2.15 | -0.0103 | 2.23 | 0.225 | 0.0297 | -0.0348 | 0.236
15 | GTAAAGG | 0.0155 | 0.00828 | 0.431 | 1.14 | -0.000283 | 1.39 | 0.0701 | 0.0483 | -0.0617 | -0.0403
16 | CTGCGAG | -0.00271 | -0.112 | -0.524 | -0.213 | 0.0668 | -1.15 | 0.194 | -0.133 | -0.0976 | -0.15
17 | TACGCGA | -0.0698 | 0.0105 | -0.857 | -0.566 | 0.0378 | -0.89 | 0.0384 | -0.137 | -0.0543 | -0.0973
18 | TGGGTCA | -0.0126 | 0.155 | 0.832 | 1.81 | -0.0171 | 2.23 | 0.208 | 0.0953 | 0.0932 | 0.162
19 | TTAACTT | -0.0764 | -0.0829 | -0.306 | -2.58 | 0.0631 | -0.0652 | -0.417 | -0.114 | 0.125 | -0.0622
20 | GCCCCTG | -0.142 | 0.0738 | -0.137 | 0.228 | -0.0947 | 0.104 | -0.0522 | -0.0831 | -0.00991 | -0.0865
21 | AGTTCAC | -0.00747 | -0.117 | 0.0282 | -0.146 | -0.128 | -0.371 | -0.0815 | -0.0747 | 0.0353 | -0.00892
22 | GGCTTAA | 0.138 | 0.146 | 0.443 | 0.931 | 0.107 | 1.59 | 0.0137 | 0.123 | 0.0977 | 0.0422
23 | GTGAGAA | 0.0769 | 0.129 | 0.499 | 1.15 | 0.0247 | 1.66 | 0.116 | 0.0962 | 0.196 | 0.188
24 | TAGTCGA | 0.0447 | -0.0713 | -0.385 | -0.924 | 0.0833 | -1.21 | -2.09 | -0.159 | 0.119 | 0.0215
25 | GATGAAC | 0.122 | 0.0545 | 0.215 | 0.747 | 0.0127 | 1.05 | 0.0741 | 0.0739 | 0.0416 | 0.0385
26 | GACAACA | -0.0426 | -0.0229 | 0.275 | -1.33 | 0.0769 | 0.718 | 0.0469 | -0.00522 | 0.0525 | -0.0126
27 | ATTGCCA | 0.00734 | -0.0554 | -0.504 | -0.807 | 0.0649 | -1.13 | 0.0335 | -0.0275 | 0.141 | -0.0614
28 | TGCGTGA | 0.0822 | -0.0929 | -0.235 | -0.369 | 0.00506 | -0.775 | -0.0621 | 0.019 | -0.00834 | -0.0844
29 | GGTTGCC | -0.0784 | 0.0244 | -0.0738 | 0.312 | -0.181 | -0.0891 | 0.0433 | -0.0782 | 0.0872 | -0.0937
